The campaign covered roughly 360,000 compounds. About 520 (0.14%) were called active. The inconclusive results got no clear call from the source; some entries with a clear call stand among them for comparison. The call rests on the fitted dose curve; in most records, active means well fitted inhibition curve with a large enough effect; inconclusive means small, poorly fitted or top-dose-only effect; inactive means no such curve, though single readings can be large or run the other way. No potency is given beside an inconclusive call; the fits are too rough.
biological target: Rap guanine nucleotide exchange factor 3 (Homo sapiens) (UniProt O95398); assay: qHTS for Antagonist of cAMP-regulated guanine nucleotide exchange factor 3 (EPAC1): primary screen; details: EPAC1 GEF assay, Rap1b-BODIPY-GDP exchange fluorescence; activity change, negative = inhibition: at 115 µM (top of the series); further: nearly all actives have a fitted effect of over 50% in size;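 on activity change, negative = inhibition: plate controls were vehicle for no effect and positive control for full effect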
Chain of UniProt O95398 (O95398 whole entry, looked up): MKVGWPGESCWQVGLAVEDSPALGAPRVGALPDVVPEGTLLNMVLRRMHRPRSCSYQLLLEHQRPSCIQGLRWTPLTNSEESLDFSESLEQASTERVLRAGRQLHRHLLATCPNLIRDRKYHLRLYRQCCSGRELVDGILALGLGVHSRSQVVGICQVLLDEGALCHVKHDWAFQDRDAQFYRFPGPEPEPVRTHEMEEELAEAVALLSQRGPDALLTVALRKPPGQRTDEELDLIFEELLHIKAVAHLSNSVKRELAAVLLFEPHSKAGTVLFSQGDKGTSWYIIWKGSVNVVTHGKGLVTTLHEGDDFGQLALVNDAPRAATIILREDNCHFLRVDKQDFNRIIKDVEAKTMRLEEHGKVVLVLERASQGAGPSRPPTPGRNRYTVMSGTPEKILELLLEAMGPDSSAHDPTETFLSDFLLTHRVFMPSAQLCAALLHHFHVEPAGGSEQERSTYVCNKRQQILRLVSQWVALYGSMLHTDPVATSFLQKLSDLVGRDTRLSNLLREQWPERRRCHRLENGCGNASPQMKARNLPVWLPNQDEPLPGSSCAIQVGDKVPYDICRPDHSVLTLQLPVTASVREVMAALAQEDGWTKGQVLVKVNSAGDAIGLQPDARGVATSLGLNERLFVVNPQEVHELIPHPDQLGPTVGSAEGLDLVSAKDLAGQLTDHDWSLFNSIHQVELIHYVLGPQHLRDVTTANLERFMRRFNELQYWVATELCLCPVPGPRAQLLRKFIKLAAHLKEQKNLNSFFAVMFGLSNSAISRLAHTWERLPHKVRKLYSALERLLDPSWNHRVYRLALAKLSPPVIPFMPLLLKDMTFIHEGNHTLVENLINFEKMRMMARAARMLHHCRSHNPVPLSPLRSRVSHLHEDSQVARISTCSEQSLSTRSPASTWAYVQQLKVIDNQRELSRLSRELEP
Potency means the concentration at half of the fitted maximal effect; tags describe the fitted curve by direction and shape.

Compound	Potency	activity change, negative = inhibition
O=c1[nH]c(Sc2ccc([N+](=O)[O-])cc2[N+](=O)[O-])nc2ccccc12	inconclusive [inhibitor, full curve, poor fit]	
COc1ccc2nc(NNC(=O)C3COc4ccccc4O3)sc2c1 (configuration not stated)	inconclusive [inhibitor, full curve, poor fit]	
Cc1cccc(Nc2nc(NCc3ccco3)c3ccccc3n2)c1	inconclusive [inhibitor, partial curve, poor fit]	
O=C(O)Cc1ccc2sc(-c3ccccc3)nc2c1	inactive	
CC(C)(C)C(=O)NC(Nc1cccc2cccnc12)C(Cl)(Cl)Cl (configuration not stated)	inconclusive [inhibitor, partial curve]	
Cc1ccsc1/C=C1/C(=O)NN(c2ccccc2)C1=O	inactive	
COc1ccc(Br)c(Cn2c(C)c(C(=O)NCc3cccc([N+](=O)[O-])c3)sc2=O)c1	inactive	
Cc1nn(-c2ccccc2)c(Cl)c1/C=N/Nc1ccc(S(=O)(=O)Nc2ccccc2C(=O)O)cc1[N+](=O)[O-]	inconclusive [inhibitor, partial curve]	
CC(C)(C)CC(=O)Nc1nnc(SCC(=O)NC2CCCCC2)s1	inconclusive [inhibitor, partial curve]	
CC(C)(C)c1cc(NCCCn2ccnc2)n2ncc(-c3ccc(Cl)cc3)c2n1	inconclusive [inhibitor, full curve, poor fit]	
COC(=O)CCC(=O)Nc1ccc(N=Nc2ccccc2)cc1	inconclusive [inhibitor, partial curve, poor fit]	
CCOC(=O)NC(=O)COC(=O)CCCSc1nc2ccccc2s1	inconclusive [inhibitor, single point]	
O=C1NC[C@@H](CCCCN2C[C@H](Cc3ccc(O)cc3)N(CC3CCCCC3)C(=O)C2=O)N(CC2CCCCC2)C1=O	inactive	
COc1ccc(N=Nc2c(C)[nH]c3ccccc23)cc1	inconclusive [inhibitor, full curve]	
CCc1nnc(NC(=O)c2ccc(OC)cc2OC)s1	inactive	
O=C(CC[C@H]1O[C@@H](n2ccc(=O)[nH]c2=O)[C@H](O)[C@@H]1O)NCC1CCCO1 (some centres not stated)	inactive	
CC(C)(C)OC(=O)N1CC=C2C(C#N)=C(N)C(C#N)(C#N)C(c3cccs3)C2C1 (configuration not stated)	inconclusive [inhibitor, partial curve]	
Cc1ccccc1-c1nc(CS(=O)(=O)CC(=O)N2CCc3ccccc3C2)c(C)o1	inconclusive [inhibitor, single point]	
C=CCOc1ccc(/C=C2/C(=O)ON=C2C)cc1OC	inactive	
CN(C)c1cccc2c1c(NC(=O)Nc1ccccc1)nn2C	inactive	
O=C(CCN1CCCC1Cc1ccccc1)c1ccc2c(c1)OCCO2 (configuration not stated)	inactive	
O=S(=O)(Nc1cc(C(F)(F)F)ccc1N1CCOCC1)c1ccc2ccccc2c1	inconclusive [inhibitor, full curve, poor fit]	
COc1ccc(/C(N)=N/OC(=O)C2CCCCC2)cc1OC	inactive	
COc1ccc(-c2ccc([C@H]3[C@H]4C=CC[C@@H](C)[C@@H]4C(=O)N3Cc3ccccc3)c(F)c2)cc1		inconclusive: -18.8% [inhibitor]

Compound	Potency	activity change, negative = inhibition
CCc1ccc(C(=O)CSc2n[nH]c(-c3ccncc3)n2)cc1	inactive	
O=C(C=Cc1cccc(O)c1)c1ccccc1O	inactive	
CCN=c1scc(-c2ccccc2)n1/N=C/c1ccccn1	inconclusive [inhibitor, partial curve, poor fit]	
CC12CCC(C(=O)Nc3cc(Cl)ccc3Cl)(C(Br)C1=O)C2(C)C (configuration not stated)	inconclusive [inhibitor, partial curve, poor fit]	
CCC(C)c1ccc(C(C)NC(=S)NCc2ccc(F)cc2)cc1 (configuration not stated)	inconclusive [inhibitor, partial curve, poor fit]	
CCOC(=O)c1[nH]c(C)c(C(=O)Nc2ccc(Cl)cc2)c1C	inconclusive [inhibitor, single point]	
CC(C(=O)NCc1ccccc1)n1c(CSCCOc2ccccc2)nc2ccccc21 (configuration not stated)	inactive	
COCCN(CCOC)Cc1c(O)ccc2c1O/C(=C\c1ccco1)C2=O	inactive	
COC(=O)c1c(NC(=O)CN2CCC3(O)CCCCC3C2c2cc(OC)ccc2OC)sc(C)c1C (configuration not stated)	inconclusive [inhibitor, full curve, poor fit]	
CC(C)(C)OC(=O)N1CCC(NC(=O)c2nc[nH]c2C(=O)NCC(=O)OCc2ccccc2)CC1	inconclusive [inhibitor, single point]	
O=C(Cn1ncc2c(=O)oc3ccccc3c21)NCC1COc2ccccc2O1 (configuration not stated)	inconclusive [inhibitor, full curve, poor fit]	
COc1ccc(-c2ccc(NC(=O)c3ccc(Br)o3)cc2)nn1	inactive	
O=C(NCCCN1CCCC1=O)c1cc2c(s1)CCCCC2	inactive	
CCc1nnc(NS(=O)(=O)c2ccc(NC(=O)c3ccccc3)cc2)s1	inactive	
Nc1c(C(=O)Nc2ccc(F)cc2)sc(=S)n1-c1ccccc1F	inconclusive [inhibitor, single point]	
COc1ccccc1C(=O)Nc1ccc(S(=O)(=O)N2CCCCC2c2cccnc2)cc1 (configuration not stated)	inconclusive [inhibitor, full curve, poor fit]	
O=C(CSc1nnc(-c2ccco2)c(-c2ccco2)n1)Nc1ccccc1	inconclusive [inhibitor, full curve]	
Cc1nc2sc(C(c3cccs3)N3CCN(C(=O)c4ccco4)CC3)c(O)n2n1 (configuration not stated)	inconclusive [inhibitor, single point]	
COc1ccc(NC(=O)COC(=O)CNS(=O)(=O)c2ccc(F)c(F)c2F)cc1OC	inconclusive [inhibitor, single point]	
COCCNC(=O)Cn1nc(Cc2ccncc2)c2ccccc2c1=O	inconclusive [inhibitor, single point]	
CCc1cccc(CC)c1-n1c(SCC(=O)N2CCCc3ccccc32)nc(O)cc1=O	inconclusive [inhibitor, single point]	
CCc1nc2c(OCC(=O)N3CCOCC3)cccn2c1N(C=O)Cc1ccccc1	inactive	
Cc1onc(-c2ccccc2)c1C(=O)NCc1cccnc1	inconclusive [inhibitor, single point]	
Cc1cc(C)cc(-n2ncc3c2CCCC3NC(=O)CCCn2cncn2)c1 (configuration not stated)	inactive	

Compound	Potency	activity change, negative = inhibition
CCCCCCCCN1[C@@H](CC(=O)OC)c2cc(F)ccc2S1(=O)=O	inactive	
O=C(NCc1ccccc1)c1ccc(CS(=O)Cc2ccc(Cl)cc2)o1 (configuration not stated)	inconclusive [inhibitor, full curve, poor fit]	
CN(CC(=O)Nc1c(Cl)cccc1Cl)C(=O)c1cccc(-n2cccc2)c1	inactive	
Cc1cc(C)nc(NC(=O)c2ccc(Cl)cc2)n1		inconclusive: -6.65% [inhibitor]
CC(=O)Nc1cccc(-c2ccnc3c2CC(C(=O)NCc2cccnc2)O3)c1 (configuration not stated)	inconclusive [inhibitor, partial curve, poor fit]	
Nc1nnc(SCC(=O)Nc2cccnc2Cl)s1	inconclusive [inhibitor, single point]	
O=c1c2sccc2nc(SCc2cc(=O)n3cc(Cl)ccc3n2)n1Cc1ccccn1	inconclusive [inhibitor, single point]	
COc1ccccc1NC(=S)Nc1cccc(F)c1	inconclusive [inhibitor, partial curve, poor fit]	
COc1ccc(C(=O)CNc2cccc(F)c2)cc1	inactive	
O=C1c2ccccc2NC(c2ccc(-c3ccc(Br)cc3)o2)N1O (configuration not stated)	inactive	
Cc1cccc(NCC(=O)N/N=C\c2ccc[nH]2)c1	inconclusive [inhibitor, single point]	
CCCC[C@@H]1CNC(=S)N1CCc1cccc(F)c1		inconclusive: -17.7% [inhibitor]
CC(=O)N1c2c(cc(Br)cc2S(=O)(=O)N2CCN(c3ccccc3F)CC2)CC1C (configuration not stated)	inconclusive [inhibitor, single point]	
O=C(O)Cc1c(O)ccc2ccccc12	inactive	
COc1ccc(/C=C2\SC(=S)N(CCCC(=O)N3CCN(C)CC3)C2=O)cc1OC	inactive	
CC1(C)CC2(CC(c3ccc(F)cc3)c3ccc(O)cc3O2)NC(=S)N1 (configuration not stated)	inactive	
Cc1ccc2c(c1)C(=C(C#N)C#N)C(=O)N2CCN1CCOCC1	inactive	
c1ccc(CC2CCN(c3nnnn3-c3ccccc3)CC2)cc1	inconclusive [inhibitor, partial curve]	
Cn1/c(=N\NC(=O)C2CCCCC2)sc2ccccc21	inconclusive [inhibitor, partial curve, poor fit]	
CCCCNc1c(-c2ccc(SC(C)CC)cc2)nc2ccccn12 (configuration not stated)	inactive	
CCN(C(=O)CSc1nnc(-c2ccccc2)o1)c1c(N)n(Cc2ccccc2)c(=O)[nH]c1=O	inactive	
O=C(COc1ccccc1)Nc1ccc(Cl)cn1	inconclusive [inhibitor, single point]	
CCc1nnc(NC(=O)Cc2cccs2)s1	inconclusive [inhibitor, single point]	
CCOc1ccc2oc(C(=O)OCC(=O)NC(=O)NC3CCCC3)c(C)c2c1	inconclusive [inhibitor, partial curve]	

— PubChem BioAssay AID720709 (National Center for Advancing Translational Sciences (NCATS), 2013)
